In PMC12040169 (PLOS Biology, 2025):
The other results are listed elsewhere or left out.

Tested on: T1, C. trachomatis L2/434/Bu expressing GFP (CTL2-GFP)
T1 construct: L2/434/Bu GFP intracellular growth in HeLa cells
Design: species or system HeLa; C. trachomatis total inclusion area by high-content imaging, normalised to DMSO
Settings: total inclusion area; 28.5 h, 10 µM; inhibitor
How it was run: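 After bulk GFP and resorufin fluorescence reads, cells were fixed, stained with Hoechst and imaged by high-content microscopy. Inclusion area and number (GFP) stood in for chlamydial growth, nuclei count (Hoechst) for host cell viability. MICs were derived as for the bulk readout.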

SMILES	% of control remaining
Cc1ccc(C(NC(=O)C2CCN(Cc3ccc(Cl)cc3)CC2)c2ccccn2)cc1 (stereo not drawn) [CBK148007]	87.4286
CN1CCC2(CC1)CC(=O)c1cc(-c3ccc(C(=O)N(C)CCC#N)cc3)ccc1O2 [CBK156518]	86.0409
c1ccc(CNc2nc(-c3ccco3)cn3ccnc23)cc1 [CBK037955]	119.118
Cc1nc2c(OCc3ccccc3)cccn2c1N(C)C(=O)C1CCCCC1 [CBK147884]	105.111
O=C(O)c1cccc(-c2ccc(/C=N/NC(=O)c3sc4ccccc4c3Cl)o2)c1 [CBK263863]	105.777
Cc1nccn1CCNC(=O)CCc1nc2ccccc2n1C [CBK281978]	101.081
COC(=O)c1ccc(-c2ccc3[nH]ccc3c2)nc1 [CBK160174T]	98.5425
Cc1cccc(N(CC(=O)Nc2ccc3c(c2)oc2ccccc23)S(=O)(=O)c2ccccc2)c1 [CBK264813]	116.171
Fc1ccccc1C1CCN(c2cncc(N3CCNCC3)n2)CC1 [CBK172236G]	30.0276
COc1ccc(NC(=O)c2ccc(-c3nnn[nH]3)cc2)cc1OC [CBK295138]	111.751
O=C(Cc1cccc2ccccc12)NC(=S)Nc1ccc(S(=O)(=O)N2CCCCC2)cc1 [CBK266283]	93.7841
CC(C)(C)c1ccc(-c2cc3ncccc3nc2N)cc1 [CBK081199]	86.847
O=C(Nc1ncc(-c2ccccc2)s1)c1cccc([N+](=O)[O-])c1 [CBK157055]	50.0716
CCn1cc(CN(CCN(C)C)Cc2ccc(C)o2)c(C)n1 [CBK282845]	102.599
CC(C)(C)c1cn(C[C@H]2CC3CCN2C[C@@H]3C(=O)Nc2nccs2)nn1 (stereo partly drawn) [CBK288737]	107.061
O=C(Nc1ccc(F)cc1)c1ccsc1NS(=O)(=O)Cc1ccccc1 [CBK042303]	108.323
CC(OCc1ccccc1)C(=O)NCC1(N2CCOCC2)CCSC1 (stereo not drawn) [CBK305678]	56.0381
CCN(CC(=O)NCc1ccc(Cl)cc1)S(=O)(=O)c1ccc(OC)cc1 [CBK305836]	63.8975
COc1ccc2c(c1)C1(CC(=O)N(CCc3scnc3C)C1=O)C(=O)N2Cc1ccccc1 (stereo not drawn) [CBK075240]	97.6548
N#Cc1ccccc1CSCCNC(=O)c1ccc(NC(=O)c2ccco2)s1 [CBK296749]	86.1113
COc1ccc(C)cc1S(=O)(=O)N(CC(=O)N1CCN(C)CC1)c1cccc(C(F)(F)F)c1 [CBK269355]	79.3021
CC(C)c1ccc(CNC(=O)C2(c3ccccc3)CCCC2)cc1 [CBK161531]	85.9165
CCc1onc(C)c1NC(=O)NC1CC2(CCCC2)Oc2ccccc21 (stereo not drawn) [CBK305890]	40.6122
COC(=O)CNC(c1ccccc1)c1cc(Br)ccc1NC(C)=O (stereo not drawn) [CBK262976]	92.2463
COc1ccc(-c2ccc(OCCNC(=O)c3cccc(F)c3)nn2)cc1 [CBK294428]	96.071
O=C(CCc1cccnc1)N1CCCc2ccccc21 [CBK200344]	84.7549

SMILES	% of control remaining
COc1ccc(NC(=O)C2CCCN2S(=O)(=O)c2ccc(OC)cc2)cc1 (stereo not drawn) [CBK070001]	112.267
O=C(CCCc1nc(-c2ccccc2Cl)no1)NCc1cccnc1 [CBK269516]	87.6144
COc1ccc(-c2cccc(CC3(C(=O)NCc4cccs4)CCOCC3)c2)cc1 [CBK286514]	96.2614
O=C(Nc1cccc(-c2nc3ncccc3o2)c1)c1ccc(Cl)c([N+](=O)[O-])c1 [CBK262845]	75.0233
CC(C)(C)NC(=O)Cn1nc(-c2cc3c(s2)CCC3)oc1=O [CBK284714]	65.4562
N#CCCN(CCN1CCCC1)S(=O)(=O)c1cccc2nsnc12 [CBK261141]	97.5385
CC(C)(C)c1ccc(-c2cc3ncccc3nc2O)cc1 [CBK081302]	95.2023
CC1(C)Cc2nc(N3CCOCC3)ncc2C(NC(=O)c2cn[nH]c2)C1 (stereo not drawn) [CBK307409]	62.9299
CC(C)(C)OC(=O)N1CCC2(CC1)NC(=O)c1cc(-c3cccc4ncccc34)ccc1O2 [CBK083674]	89.8179
C=CCN1C(=O)C2(CC(=O)N(C)C2=O)c2ccccc21 (stereo not drawn) [CBK075137]	76.0812
O=C(Nc1nnc(-c2ccccc2)o1)c1ccc2ncsc2c1 [CBK287598]	105.004
CCNC(=O)NC(=O)C1CCN(CCc2ccc(O)c(OC)c2)CC1 [CBK035184]	99.9355
Cc1ccc(S(=O)(=O)NC(=O)NCCCCNC(=O)NS(=O)(=O)c2ccc(C)cc2)cc1 [CBK296078]	98.6827
CCCc1[nH]nc(O)c1Cc1ccc(C(F)(F)F)cc1 [CBK075014]	79.5634
CCCc1[nH]nc(O)c1C(=O)c1c(F)cccc1Cl [CBK103524]	66.981
CC1Cc2cc(C(=O)C3=C(O)C(=O)N(Cc4ccco4)C3c3cccnc3)ccc2O1 (stereo not drawn) [CBK266236]	105.035
COc1c(C)cc(-c2ncnc(C)c2C)cc1C [CBK306884]	80.6932
Cc1ccc(OCc2ccccc2)c(C(CCN(C(C)C)C(C)C)c2ccccc2)c1 (stereo not drawn) [CBK017906]	39.3016
O=C(CS(=O)(=O)Cc1ccccc1)Nc1ccc(S(=O)(=O)N2CCCCCC2)cc1 [CBK266653]	119.276
O=C(CSc1nc(Nc2ccccc2)nc(N2CCOCC2)n1)N1CCN(c2ccccc2)CC1 [CBK269078]	101.685
CCN1CC2(CCC1=O)CCN(Cc1nnc(-c3cccnc3)o1)CC2 [CBK307137]	46.357
Cc1c(F)cccc1CNC1CCC(NC(=O)OC(C)(C)C)CC1 (stereo not drawn) [CBK056691]	105.96
Nc1nnc2c(C(F)(F)F)nc3ccccc3n12 [CBK021345]	54.8047
Cc1ccc(OC(=O)c2cc(Cl)cnc2Cl)cc1 [CBK090321]	47.3742
O=C(c1n[nH]cc1Cl)N1CCCC(c2cc3ccccc3cn2)C1 (stereo not drawn) [CBK285062]	109.192
CS(=O)(=O)CCNC(=O)c1cnc(-c2ccc(F)cc2)c(-c2cccnc2)c1 [CBK038066]	87.9448

SMILES	% of control remaining
Cc1cc(C(C)(C)C)cc(S(=O)(=O)Nc2ccc(C(=O)O)c(O)c2)c1C [CBK299820]	98.0998
COC(=O)c1ccc(SCc2nc(N3CCOCC3)c3c(c2C#N)CC(C)(C)OC3)o1 [CBK019077]	117.768
O=C(NC(c1ccccc1)c1ccco1)C1CCN(C(=O)CCC2CCCC2)CC1 (stereo not drawn) [CBK059887]	115.059
O=C(O)CCCNC(=O)c1ccncc1 [CBK261146]	99.2383
COc1cc2ccccc2cc1C(=O)Nc1nnc(-c2ccncc2)o1 [CBK287432]	78.5975
COC(C)c1nc(C)c(C(=O)NC2CCCN(c3ccn(C)n3)C2=O)s1 (stereo not drawn) [CBK305454]	50.7252
CCCCc1nccc(-c2ccc(OCC)c(C(=O)O)c2)n1 [CBK307429]	66.7247
NC(=O)c1c(NC(=O)c2ccc(COc3cc(Cl)ccc3Cl)o2)sc2c1CCCC2 [CBK265775]	87.7346
Cn1c(CSc2nc3sc4c(c3c(=O)[nH]2)CCCC4)nnc1SC/C=C/c1ccccc1 [CBK264428]	96.6023
NC(=O)c1c(NC(=O)C2CC(=O)OC23CCCCC3)sc2c1CCCCC2 (stereo not drawn) [CBK264189]	110.446
Cc1c(C)n(Cc2ccco2)c2ncnc(N3CCC(C(=O)O)CC3)c12 [CBK307599]	84.9701
CN(CC1CCCCC1)C(=O)c1cc2ccsc2[nH]1 [CBK304518]	73.1689
CN(C(=O)C1CCCO1)c1nc2c(s1)CCc1occc1-2 (stereo not drawn) [CBK283483]	75.4948
CC(=O)Nc1ccc(-c2ccc(C(=O)N3CCN(C(=O)N4CCCC4)CC3)cn2)cc1 [CBK160187]	73.5656
c1cncc(-c2cn3ccnc3c(NC3CCCCC3)n2)c1 [CBK093606]	104.627
Cc1cc(Cc2ccccc2F)cc(C2CCN(C(=O)c3nc4ccc(F)cc4[nH]3)CC2)n1 [CBK285932]	110.708
CC(C)Cn1cnc(S(=O)(=O)N2CCC(OCc3ccncc3)C2)c1 (stereo not drawn) [CBK305456]	35.8094
N#C/C(=C/c1cn(CC(=O)O)c2ccccc12)c1ccc(C(=O)O)cc1 [CBK268977]	111.819
Cn1cccc1C(=O)NCc1ccccc1OC1CCNC1 (stereo not drawn) [CBK029463T]	101.238
CC1(C)COC(CCN2CCN(c3ccc(F)cc3)CC2)c2ccccc21 (stereo not drawn) [CBK024080C]	65.614
Cc1cc(S(=O)(=O)N(c2ccc(C(C)(C)C)cc2)C2CCNCC2)c(C)s1 [CBK165075T]	11.7808
c1ccc2[nH]c(CCSCCc3nc4ccccc4[nH]3)nc2c1 [CBK023949]	86.4026
Cn1cc(C(c2ccccc2OCC(=O)O)c2cn(C)c3ccccc23)c2ccccc21 [CBK266410]	132.392
O=C(Nc1ccc(Cl)cc1)Nc1cc(S(=O)(=O)N2CCCC2)ccc1Cl [CBK266122]	100.582
O=C(COc1ccc2ccccc2c1)NCCN1CCOCC1 [CBK265444]	84.4171
O=C(NCc1cccc2ccccc12)C1(c2ccccc2)CCCC1 [CBK149534]	110.881
